# From PubChem BioAssay (Tox21)
# This list was built around the results that the source calls inconclusive (neither active nor inactive); the mix of calls is not that of the screen. For part of these data: No potency is given beside an inconclusive call; the fits are too rough. Calls of active or inactive are those of the source. Unless noted, calls come from the whole dose curve; as a rule, active = well fitted curve in the direction sought with a large enough effect in the repeat runs; inconclusive = weak or mixed curves; inactive = no such curve, though single readings can be large; an effect the other way counts as inactive or inconclusive.
# Experiments:
# [1] = molecular target: Bile acid receptor (Homo sapiens) (UniProt Q96RI1); test: qHTS assay to identify small molecule agonists of the farnesoid-X-receptor (FXR) signaling pathway (AID 743220; active = well fitted activation curve with a large enough effect in the signal ratio in the repeat runs, not every such curve was filed as active; inconclusive = weak or mixed curves, or effect the other way; the % refers to the signal ratio; note: potency is the fitted concentration of half-maximal effect); conditions: HEK293T FXR-UAS-bla, beta-lactamase FRET ratio, 16 h; activation: at 62.6 µM (top of the series) unless noted
# Chain of UniProt Q96RI1 (Q96RI1 whole entry, looked up): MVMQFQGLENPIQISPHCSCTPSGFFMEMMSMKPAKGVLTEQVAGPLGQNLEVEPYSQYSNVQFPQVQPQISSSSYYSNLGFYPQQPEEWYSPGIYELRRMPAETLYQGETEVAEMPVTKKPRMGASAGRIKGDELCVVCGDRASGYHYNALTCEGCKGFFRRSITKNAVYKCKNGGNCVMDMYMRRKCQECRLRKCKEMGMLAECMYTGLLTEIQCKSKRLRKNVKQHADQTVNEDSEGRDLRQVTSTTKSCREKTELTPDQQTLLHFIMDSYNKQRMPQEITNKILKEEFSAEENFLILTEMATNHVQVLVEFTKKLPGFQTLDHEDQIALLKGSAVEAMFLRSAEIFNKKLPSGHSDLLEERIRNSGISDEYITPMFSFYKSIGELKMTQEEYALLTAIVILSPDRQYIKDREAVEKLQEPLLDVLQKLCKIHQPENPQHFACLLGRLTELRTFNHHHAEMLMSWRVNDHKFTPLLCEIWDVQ
# How it was run: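 FXR-UAS-bla HEK 293T cells carrying a UAS-driven beta-lactamase reporter were plated for 5 h at 37C/5% CO2, then exposed to DMSO-dissolved Tox21 10K compounds for 16 h at 37C. A LiveBLAzer B/G FRET substrate was loaded for 2 h at room temperature before fluorescence reading.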
# [2] = qHTS assay to identify small molecule agonists of the TGF-beta/Smad signaling pathway (AID 1346859; active = well fitted activation curve with a large enough effect in the signal ratio in the repeat runs, not every such curve was filed as active; inconclusive = weak or mixed curves; the % refers to the signal ratio; note: potency is the fitted concentration of half-maximal effect)
# How it was run: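 Stable Smad binding element-beta-lactamase HEK 293T cells; 5 hr compound exposure at 37 C under 5% CO2; 2 hr room-temperature substrate step; fluorescence excited at 405 nm, collected at 460 nm and 530 nm.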
# [3] = qHTS assay to identify small molecule agonists of the androgen receptor (AR) signaling pathway in the presence of an antagonist - cell viability counter screen (AID 1259379);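 note: MDA-kb2 human breast cancer cells carrying an MMTV luciferase reporter; nearly all actives have a fitted effect of over 25% in size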
# How it was run: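 Cytotoxicity is assessed by CellTiter-Fluor in MDA-kb2 cells carrying an MMTV-driven luciferase reporter. Cells receive 3.0uM nilutamide plus compounds at 15 concentrations and incubate 16 hr at 37C without CO2 before fluorescence reading.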
# [4] = qHTS assay to identify small molecule agonists of the estrogen related receptor signaling pathway with the pleiotropic PPARgamma coactivator (PGC) from Tox21 10K library (AID 1224842); note: potency is the fitted concentration of half-maximal effect; nearly all actives have a fitted effect of over 15% in size
# How it was run: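 PGC/ERR reporter cells (NTP line) were seeded 2,000 per well, rested 6 h at 37 C/5% CO2, then pin-dosed with compounds in DMSO for 18 h at 37 C; luciferase read by One-Glo luminescence after 30 min at room temperature.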
# [5] = A CellTox Green Cytotoxicity Assay to monitor cytotoxicity in HEK293 cells - 32 hour (AID 1224881); note: nearly all actives have a fitted effect of over 40% in size; note: potency is the fitted concentration of half-maximal effect
# How it was run: (§1)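 Cells (HEK293, 600/well) and dye reagent are dispensed together. After 5 h at 37 C, 23 nL compound is pinned in. Plates stay at 37 C for 40 h with fluorescence read at 0h, 8h, 16h, 24h, 32h and 40h.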
# [6] = system: thyroid hormone receptor (rat, GH3 cells); test: qHTS assay to identify small molecule agonists of the thyroid receptor (TR) signaling pathway (AID 743066; calls by dose curve); conditions: GH3.TRE-Luc cells, TR agonist luciferase, 24 h; activation: at 83.9 µM (top of the series) unless noted
# [7] = qHTS RealTime-Glo MT Cell Viability Assay in HepG2 cells - 8 hour (AID 1224873); note: nearly all actives have a fitted effect of over 55% in size
# How it was run: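 HepG2 cells mixed with RealTime-Glo MT reagents (NanoLuc plus cell-permeant prosubstrate) were seeded at 600 cells/well, incubated 5 h at 37 C/5% CO2, then pinned with compounds in DMSO; nonlytic luminescence tracked viability during 40 h treatment.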
# [8] = Caspase-3/7 induction in HepG2 cells by small molecules, qHTS cell viability counter screen (AID 1346981); note: nearly all actives have a fitted effect of over 30% in size; note: potency is the fitted concentration of half-maximal effect
# How it was run: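 Cell viability is measured as a cytotoxicity counter screen alongside the Caspase-Glo 3/7 readout in identical wells. Wild-type HepG2 cells are treated with test compounds for 16 hr at 37 C before CellTiter-Fluor addition and a 1-hr incubation.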
# [9] = qHTS assay to identify small molecule antagonists of the estrogen related receptor (ERR) signaling pathway from Tox21 library - cell viability counter screen (AID 1224834); note: nearly all actives have a fitted effect of over 30% in size
# How it was run: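 ERR cells, 2,000/well; 6 h settle at 37 C/5% CO2; pin-tool compound transfer in DMSO; 17.5 h at 37 C; CellTiter-Fluor, 30 min; fluorescence intensity.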
# [10] = A CellTox Green Cytotoxicity Assay to monitor cytotoxicity in HEK293 cells - 16 hour (AID 1224888); note: potency is the fitted concentration of half-maximal effect; nearly all actives have a fitted effect of over 35% in size
# How it was run: as §1
# [11] = qHTS assay to identify aromatase inhibitors - cell viability counter screen (AID 743084); conditions: MCF-7 aro ERE viability, CellTiter-Fluor, 24 h; series mostly up to 70.3 µM;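 note: cells stimulated with testosterone during compound exposure; potency is the fitted concentration of half-maximal effect; nearly all actives have a fitted effect of over 55% in size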
# [12] = qHTS assay for small molecule agonists of the antioxidant response element (ARE) signaling pathway - cell viability counter screen (AID 743203; calls by dose curve; note: potency is the fitted concentration of half-maximal effect; nearly all actives have a fitted effect of over 55% in size); conditions: ARE-bla HepG2 viability, CellTiter-Glo luminescence, 16 h; series mostly up to 73.3 µM
# How it was run: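 Cytotoxicity was tested in parallel with the ARE reporter screen. ARE-bla HepG2 cells were exposed to compounds for 16 hrs, and viability was taken from CellTiter-Glo luminescence.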
# [13] = qHTS assay to identify small molecule agonists of the hypoxia (HIF-1) signaling pathway (AID 1224846; active = well fitted activation curve with a large enough effect in the signal ratio in the repeat runs, not every such curve was filed as active; inconclusive = weak or mixed curves; the % refers to the signal ratio; note: potency is the fitted concentration of half-maximal effect); conditions: HRE-bla ME-180 cells, beta-lactamase ratio, 17 h; activation: at 76.8 µM (top of the series) unless noted
# How it was run: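 Compounds from the Tox21 10K library, dissolved in DMSO, are tested for induction of a hypoxia response element–controlled beta-lactamase reporter in ME-180 cells. Exposure lasts 17 hrs at 37C after a 5 hr settling period, followed by CCF4-AM FRET substrate.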
# [14] = A CellTox Green Cytotoxicity Assay to monitor cytotoxicity in HepG2 cells - 24 hour (AID 1224878); note: potency is the fitted concentration of half-maximal effect; nearly all actives have a fitted effect of over 45% in size
# How it was run: (§2)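 Cells and non-lytic dye reagent are dispensed together (600 HepG2 cells/well) and incubated 5 h before DMSO compound transfer. Kinetic fluorescence is then recorded in the same wells during 40 h at 37 C.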
# [15] = molecular target: Progesterone receptor (Homo sapiens) (UniProt P06401); test: qHTS assay to identify small molecule agonists of the progesterone receptor (PR) signaling pathway (AID 1346784; calls by dose curve; note: nearly all actives have a fitted effect of over 30% in size); conditions: PR-UAS-bla HEK293T, beta-lactamase FRET ratio, 16 h; activation: at 92.4 µM (top of the series) unless noted
# Chain of UniProt P06401 (P06401 whole entry, looked up): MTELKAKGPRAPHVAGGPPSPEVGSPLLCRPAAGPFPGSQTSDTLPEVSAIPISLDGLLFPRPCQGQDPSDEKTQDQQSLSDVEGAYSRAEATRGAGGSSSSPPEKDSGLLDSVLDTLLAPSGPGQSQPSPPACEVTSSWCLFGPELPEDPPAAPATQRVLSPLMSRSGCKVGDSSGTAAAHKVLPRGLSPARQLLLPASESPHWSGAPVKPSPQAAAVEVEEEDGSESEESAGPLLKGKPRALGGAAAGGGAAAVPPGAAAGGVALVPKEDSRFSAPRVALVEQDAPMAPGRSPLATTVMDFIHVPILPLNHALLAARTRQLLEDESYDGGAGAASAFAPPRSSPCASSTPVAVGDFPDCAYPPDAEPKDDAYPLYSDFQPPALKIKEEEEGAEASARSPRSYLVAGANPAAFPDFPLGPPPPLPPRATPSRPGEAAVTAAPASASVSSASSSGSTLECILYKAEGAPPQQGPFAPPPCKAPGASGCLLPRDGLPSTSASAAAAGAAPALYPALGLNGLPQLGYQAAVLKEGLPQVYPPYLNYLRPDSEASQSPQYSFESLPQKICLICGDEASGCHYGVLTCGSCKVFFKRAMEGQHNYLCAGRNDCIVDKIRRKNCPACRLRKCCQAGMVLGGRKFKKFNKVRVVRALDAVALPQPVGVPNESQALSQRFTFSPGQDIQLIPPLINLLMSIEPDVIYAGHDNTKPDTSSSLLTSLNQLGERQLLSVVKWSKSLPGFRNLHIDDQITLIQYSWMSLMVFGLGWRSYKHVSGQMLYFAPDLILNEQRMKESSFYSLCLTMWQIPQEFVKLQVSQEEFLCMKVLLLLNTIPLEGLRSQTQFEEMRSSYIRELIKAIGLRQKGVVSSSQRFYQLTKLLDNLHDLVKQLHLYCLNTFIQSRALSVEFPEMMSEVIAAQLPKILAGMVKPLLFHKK
# How it was run: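 Using charcoal-stripped serum (2%) to limit endogenous steroids, PR-UAS-bla HEK 293T cells received compounds for 16 hr at 37C after 6 hr plating; beta-lactamase FRET fluorescence was recorded following 2 hr substrate loading at room temperature.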
# [16] = molecular target: Cytochrome P450 3A4 (Homo sapiens) (UniProt P08684); test: Cytochrome P450 Family 3 Subfamily A Member 4 (CYP3A4) small molecule antagonists: luciferase reporter qHTS assay (AID 1671201); note: nearly all actives have a fitted effect of over 50% in size
# Chain of UniProt P08684 (P08684 whole entry, looked up): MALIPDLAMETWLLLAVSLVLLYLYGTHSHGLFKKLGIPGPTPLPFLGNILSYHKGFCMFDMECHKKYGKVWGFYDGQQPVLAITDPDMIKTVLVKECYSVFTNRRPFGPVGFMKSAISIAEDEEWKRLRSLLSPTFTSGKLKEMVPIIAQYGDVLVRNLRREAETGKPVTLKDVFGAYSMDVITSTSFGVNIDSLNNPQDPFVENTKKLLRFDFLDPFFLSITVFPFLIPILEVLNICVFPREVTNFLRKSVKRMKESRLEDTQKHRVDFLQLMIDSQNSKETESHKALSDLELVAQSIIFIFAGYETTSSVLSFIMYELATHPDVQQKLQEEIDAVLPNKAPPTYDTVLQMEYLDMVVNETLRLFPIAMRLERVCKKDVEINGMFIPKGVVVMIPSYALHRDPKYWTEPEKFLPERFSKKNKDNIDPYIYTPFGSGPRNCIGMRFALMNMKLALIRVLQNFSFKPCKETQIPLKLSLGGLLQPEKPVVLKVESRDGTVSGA
# How it was run: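 Setup: enzyme-substrate mix, compound pin transfer, 10 min RT. Reaction: NADPH regeneration solution, 1 h RT. Readout: detection reagent stops turnover, luminescence measured after 20 min, expressed in relative luminescence units.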
# [17] = molecular target: Peroxisome proliferator-activated receptor gamma (Homo sapiens) (UniProt P37231); test: qHTS assay to identify small molecule agonists of the peroxisome proliferator-activated receptor gamma (PPARg) signaling pathway (AID 743094; active = well fitted activation curve with a large enough effect in the signal ratio in the repeat runs, not every such curve was filed as active; inconclusive = weak or mixed curves, or effect the other way; inactive = no such curve, though single readings can be large or run the other way; the % refers to the signal ratio); conditions: HEK293H PPARg-UAS-bla, beta-lactamase FRET ratio, 17 h; activation: at 57 µM (top of the series) unless noted
# Chain of UniProt P37231 (P37231 whole entry, looked up): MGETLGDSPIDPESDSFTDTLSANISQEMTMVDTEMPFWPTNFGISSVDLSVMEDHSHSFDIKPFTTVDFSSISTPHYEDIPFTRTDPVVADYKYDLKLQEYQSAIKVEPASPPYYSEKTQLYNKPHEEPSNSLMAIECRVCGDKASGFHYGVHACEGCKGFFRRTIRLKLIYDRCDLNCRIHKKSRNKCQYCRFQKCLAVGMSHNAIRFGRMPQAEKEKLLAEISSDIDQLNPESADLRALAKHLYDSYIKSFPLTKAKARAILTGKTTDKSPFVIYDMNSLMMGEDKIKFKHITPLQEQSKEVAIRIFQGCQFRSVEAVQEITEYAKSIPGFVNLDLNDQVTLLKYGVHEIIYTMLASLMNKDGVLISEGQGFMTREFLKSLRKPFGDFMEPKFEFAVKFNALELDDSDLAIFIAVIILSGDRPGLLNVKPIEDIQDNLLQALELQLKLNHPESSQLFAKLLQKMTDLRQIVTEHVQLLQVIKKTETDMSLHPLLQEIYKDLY
# How it was run: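 Cells from the PPARg UAS-bla HEK293H line are plated and incubated 5 h at 37C. Compounds in DMSO are pinned in and left 17 h at 37C. LiveBLAzer B/G substrate is then added for 1 h at room temperature before fluorescence is measured.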
# [18] = A CellTox Green Cytotoxicity Assay to monitor cytotoxicity in HepG2 cells - 8 hour (AID 1224890); note: nearly all actives have a fitted effect of over 45% in size
# How it was run: as §2
# Tags give direction and shape of the fitted curve or compound fluorescence and quenching.
structure (smiles),measurement,setting,value
COC(C)(C)CCCC(C)CC=O (stereo not given),Potency,[1],inactive
same,Potency,[2],"inconclusive [rising, partial curve, poor fit]"
CCOC(=S)SSC(=S)OCC,Potency,[3],inactive
c1ccc(CCCc2ccccn2)cc1,Potency,[4],"inconclusive [activator, partial curve]"
same,Potency,[5],"inconclusive [activator, partial curve, poor fit]"
Clc1cc(Cl)c(Cl)c(Cl)c1Cl,Potency,[6],inactive
same,Potency,[7],inactive
same,Potency,[8],"inconclusive [cytotoxic, single point]"
NNC(=O)c1ccncc1,Potency,[6],inactive
CN(C(=O)C(Cl)Cl)c1ccc(OC(=O)c2ccco2)cc1,Potency,[7],inactive
Cc1c(C(=O)c2c[nH]n(C)c2=O)ccc(S(C)(=O)=O)c1C1=NOCC1,Potency,[5],inactive
CCOC(C)OCC,Potency,[9],inactive
same,Potency,[10],"inconclusive [activator, single point]"
same,Potency,[8],inactive
CCCOc1ccc(C(=O)OCCN(CC)CC)cc1N,Potency,[9],inactive
COc1ccc([C@@H]2CC(=O)c3c(O)cc(O[C@@H]4O[C@H](CO[C@@H]5O[C@@H](C)[C@H](O)[C@@H](O)[C@H]5O)[C@@H](O)[C@H](O)[C@H]4O)cc3O2)cc1OC,Potency,[11],"inconclusive [rising, partial curve, poor fit]"
same,Potency,[12],"inconclusive [cytotoxic, single point]"
same,Potency,[13],"inconclusive [falling, single point]"
NC(=O)N[C@@H](CCC(=O)O)C(=O)O,Potency,[9],inactive
same,Potency,[14],"inconclusive [activator, single point]"
same,Potency,[15],inactive
same,Potency,[16],inactive
CC(C)[C@H](N)C(=O)OCCOCn1cnc2c(=O)[nH]c(N)nc21,Potency,[17],inactive
same,Potency,[1],"inconclusive [activator, single point]"
same,Potency,[9],inactive
O=C(NCC(O)CO)c1c(I)c(C(=O)NCC(O)CO)c(I)c(N(CCO)C(=O)CO)c1I (stereo not given),Potency,[9],inactive
CCOC(=O)c1ccccc1OC,Potency,[5],inactive
same,Potency,[8],"inconclusive [rising, partial curve]"
COCc1nnc(-c2ccc[n+]([O-])c2)n1-c1c(Cl)c(Cl)cc2[nH]c(=O)c(=O)[nH]c12,Potency,[9],inactive
C[C@H](NC(CCc1ccccc1)C(=O)O)C(=O)N1CCC[C@H]1C(=O)O (stereo not given in full),Potency,[18],inactive
